Assay results published in the supplement of paper PMC10126150.
Sequences with one replicate were seen in a single cluster, so their values are uncertain.

tested on: ATP; experiment: switch fluorescence ratio, 500 uM ATP over buffer (Cy3 cluster intensity, sum of 5 cycles each) (fold (ratio)); higher = stronger signal-on switching upon ATP binding; sequences stand for … in TCGTCGGCAGCGTCAGATGTGTATAAGAGACAGTTTTTTTTTTTTTTTTTTTTTTTTT…TC; conditions: aptamer strand: ATP DNA aptamer (quencher-CACCTGGGGGAGTATTGCGGAGGAAGG + anchor), 100 nM annealed; ATP concentration: 500 uM; one replicate
How it was run: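 Exposure to 500 uM ATP lasted 15 min at 22 °C before imaging, and a selection-buffer image was taken beforehand, for Cy3-labelled switching-strand clusters on a modified Illumina MiSeq flow-cell annealed to 100 nM quencher-labelled ATP aptamer. Five buffer/ATP cycles were run with NaOH stripping and re-annealing between them. The fluorescence ratio per cluster is summed target-cycle over summed buffer-cycle Cy3 intensity, averaged per switch-domain sequence. Clusters outside 100-1000 RFU were excluded.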

Row | Sequence | switch fluorescence ratio
1 | ATTGCACCTG | 1.01
2 | ATTGCAGGCG | 0.942
3 | ATTGCCACCT | 0.966
4 | ATTGCCCTCA | 0.992
5 | ATTGCGGCAT | 0.971
6 | ATTGCGGCTT | 1.01
7 | ATTGCGTGTC | 1.04
8 | ATTGCTAAGG | 1.01
9 | ATTGCTATAT | 1.04
10 | ATTGCTTGAT | 0.99
11 | ATTGGAGAGA | 1.03
12 | ATTGGCAAGA | 0.975
13 | ATTGGCAGCA | 1
14 | ATTGGGTCAT | 0.994
15 | ATTGGGTTAA | 1.01
16 | ATTGGTATTT | 0.951
17 | ATTGGTTGGA | 0.989
18 | ATTGTAATTA | 0.989
19 | ATTGTAGGA | 0.982
20 | ATTGTAGTCC | 0.994
21 | ATTGTAGTCG | 0.929
22 | ATTGTATCTA | 0.989
23 | ATTGTGAATT | 0.979
24 | ATTGTGGTA | 0.972
25 | ATTGTGTCCG | 1.01

Row | Sequence | switch fluorescence ratio
26 | ATTGTTATAC | 1.06
27 | ATTGTTGCGT | 0.987
28 | ATTGTTGTGC | 0.977
29 | ATTGTTTGGT | 0.974
30 | ATTTAAAATT | 0.968
31 | ATTTAAAGTC | 0.99
32 | ATTTAAATCG | 1.03
33 | ATTTAACTAT | 1
34 | ATTTAAGTCT | 1.02
35 | ATTTACCTTA | 1.02
36 | ATTTACTCTC | 0.993
37 | ATTTAGAAG | 1.03
38 | ATTTAGACAG | 0.959
39 | ATTTAGGTAA | 1.02
40 | ATTTAGTGCA | 1.07
41 | ATTTATCAAA | 1.01
42 | ATTTATTAAT | 0.979
43 | ATTTCAACTC | 1.01
44 | ATTTCAAGGA | 0.995
45 | ATTTCAATCC | 0.884
46 | ATTTCAGGTT | 0.976
47 | ATTTCCCTTA | 0.989
48 | ATTTCCGGTT | 0.983
49 | ATTTCGCCTT | 1.05
50 | ATTTCGGCGG | 0.981

Row | Sequence | switch fluorescence ratio
51 | ATTTCTGATA | 0.987
52 | ATTTGAATGT | 1.03
53 | ATTTGAGCGG | 1.04
54 | ATTTGATAAA | 0.985
55 | ATTTGATACA | 1.01
56 | ATTTGCCATT | 1.02
57 | ATTTGCCTTC | 1.13
58 | ATTTGCTAGT | 0.991
59 | ATTTGCTGC | 1
60 | ATTTGGAACG | 1.02
61 | ATTTGGAAGC | 1.02
62 | ATTTGGAGGA | 0.996
63 | ATTTGGGAC | 1.01
64 | ATTTGGGACG | 1.01
65 | ATTTGTCTCT | 0.998
66 | ATTTGTGTAG | 1.02
67 | ATTTGTGTTG | 0.955
68 | ATTTTAAAAG | 1
69 | ATTTTAACCG | 0.998
70 | ATTTTACCC | 1.01
71 | ATTTTACTCA | 0.998
72 | ATTTTATCC | 1.03
73 | ATTTTCAAGT | 0.973
74 | ATTTTCATTT | 0.99
75 | ATTTTCCCCC | 1.02

Row | Sequence | switch fluorescence ratio
76 | ATTTTGCCTG | 1.04
77 | ATTTTGTTAT | 0.965
78 | ATTTTTGCGG | 0.984
79 | ATTTTTGGT | 0.99
80 | ATTTTTTCAT | 1
81 | CAAAAAGATA | 1
82 | CAAAAAGTAC | 1.05
83 | CAAAAAGTGC | 0.976
84 | CAAAACGAGA | 0.964
85 | CAAAACTTCG | 1.27
86 | CAAAAGACGA | 1.48
87 | CAAAAGAGGA | 1
88 | CAAAAGGTCT | 1.02
89 | CAAAAGGTTC | 1.01
90 | CAAAATATCT | 1.05
91 | CAAACACATT | 1
92 | CAAACCGACT | 1.53
93 | CAAACCTCCA | 1.28
94 | CAAACGTCCT | 1.04
95 | CAAAGAATCC | 1
96 | CAAAGGAGGG | 1
97 | CAAAGGCGTC | 0.971
98 | CAAAGGGACG | 1.01
99 | CAAAGTAAGT | 0.969
100 | CAAAGTACTG | 1.15

Row | Sequence | switch fluorescence ratio
101 | CAAATAAGCA | 1.03
102 | CAAATATGAC | 1.04
103 | CAAATATTGT | 0.948
104 | CAAATGATGA | 0.98
105 | CAAATTACGA | 1.07
106 | CAAATTGCGA | 0.988
107 | CAACAAAAAA | 0.983
108 | CAACAAACT | 1.02
109 | CAACACGCAT | 1.96
110 | CAACAGCCAC | 1.23
111 | CAACCAAGGG | 1.05
112 | CAACCATCTT | 1.34
113 | CAACCCCACA | 1.16
114 | CAACCGAACG | 1.34
115 | CAACCGAACT | 1.28
116 | CAACCGCCGA | 1.39
117 | CAACCGCTGT | 1.58
118 | CAACGGGCAG | 1.02
119 | CAACGTACGA | 1.66
120 | CAACGTGAGC | 1.02
121 | CAACTCCGTG | 1.13
122 | CAACTGAGGT | 0.965
123 | CAACTTTGTC | 0.935
124 | CAACTTTTCG | 0.986
125 | CAAGACCAGG | 1.06

Row | Sequence | switch fluorescence ratio
126 | CAAGACCAGT | 0.985
127 | CAAGACCATC | 0.991
128 | CAAGACTCCT | 1.77
129 | CAAGAGGCGC | 1.01
130 | CAAGAGGTCA | 1
131 | CAAGATTAGT | 0.993
132 | CAAGATTTGG | 1.02
133 | CAAGATTTTG | 0.977
134 | CAAGCAGCCC | 1.06
135 | CAAGCCGGTG | 1.02
136 | CAAGGAAACC | 1.04
137 | CAAGGAAGGC | 1.07
138 | CAAGGACTTA | 0.968
139 | CAAGGATCTC | 0.966
140 | CAAGGGAGCC | 1.03
141 | CAAGGTTGGG | 1.1
142 | CAAGTATTAA | 1.21
143 | CAAGTCAGTT | 0.973
144 | CAAGTCCGGC | 1.04
145 | CAAGTGAAGG | 1.01
146 | CAAGTGGGGT | 0.983
147 | CAAGTGGTTA | 0.961
148 | CAAGTTCGCC | 0.976
149 | CAAGTTTCGT | 0.989
150 | CAATAAACTA | 1.07

Row | Sequence | switch fluorescence ratio
151 | CAATAAGTCA | 1
152 | CAATACACCT | 1.53
153 | CAATACACTA | 1.11
154 | CAATAGCAGT | 1.12
155 | CAATAGTGGT | 0.997
156 | CAATATCAC | 1.03
157 | CAATATTGTG | 0.993
158 | CAATATTTGA | 0.969
159 | CAATCCAGAC | 1.03
160 | CAATCGGCTG | 0.981
161 | CAATCGGTTG | 0.981
162 | CAATCTACTC | 1.08
163 | CAATGAACGG | 1.07
164 | CAATGAGATC | 0.982
165 | CAATGGAAGT | 0.995
166 | CAATGGACGC | 1.04
167 | CAATGGCAAT | 1.25
168 | CAATGGGTGC | 1.05
169 | CAATGTACCT | 1.26
170 | CAATGTACTG | 1.02
171 | CAATGTAGG | 0.981
172 | CAATGTCGCT | 0.982
173 | CAATTCAGAA | 0.974
174 | CAATTGAAGG | 1.03
175 | CAATTGGACC | 1.02

Row | Sequence | switch fluorescence ratio
176 | CAATTGGGTC | 1.02
177 | CAATTGTGTT | 1.07
178 | CAATTTCAAG | 0.964
179 | CAATTTCTAC | 0.99
180 | CACAAAGTAA | 1.04
181 | CACAACACTT | 1.34
182 | CACAACCCGC | 1.07
183 | CACAACTTCA | 1.02
184 | CACAAGATTG | 1.01
185 | CACAATGAGG | 0.981
186 | CACACGCCGA | 1.09
187 | CACACGTTT | 1
188 | CACACTAATA | 1.08
189 | CACAGAATCT | 1.07
190 | CACAGAGCAG | 1.12
191 | CACAGGAGAT | 1.03
192 | CACAGGGACA | 1.19
193 | CACAGTTTAA | 1.02
194 | CACATATTAG | 1.01
195 | CACATGATCA | 1.02
196 | CACATGATCG | 0.978
197 | CACATTCCA | 1.07
198 | CACCACCGAG | 1.11
199 | CACCATGGTG | 1.13
200 | CACCATTGAC | 1.07
